Where a name gives a salt, the structure may show the parent alone. Over roughly 1,900 compounds, “cell viability of compound + 1 nM pemigatinib relative to pemigatinib-only (DMSO) wells” has its median near 0.95; the lowest 2% begin near 0.22. This is one part of the list.

The test relates to PDC-DUC18828. Briefly: cell viability of compound + 1 nM pemigatinib relative to pemigatinib-only (DMSO) wells (fraction); PDC-DUC18828 is a patient-derived cholangiocarcinoma cell line; higher = less growth inhibition. The settings on record: first compound 1 µM; pemigatinib concentration 1 nM; 72 h. On the procedure:
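Selleck Bioactive library screen in the patient-derived FGFR2 fusion-positive ICC cell line PDC-DUC18828 (500 cells/well). Each compound was tested at 1 uM with 1 nM pemigatinib, in triplicate, for 72 h. Viability was read by CellTiter-Glo and normalised to plate DMSO controls. Value is the paper's averaged normalised viability.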
On to `CCCCCCCCCCCCCCCC(=O)OC[C@H](O)[C@H]1OC(=O)C(O)=C1O` [L-Ascorbyl 6-palmitate] + CCN1C(=O)N(c2c(F)c(OC)cc(OC)c2F)Cc2cnc3[nH]c(CN4CCOCC4)cc3c21 [pemigatinib], for which the cell viability came out at 0.881.

Regarding `Clc1cccc(Cl)c1NC1=NCCN1` [Clonidine HCl] + CCN1C(=O)N(c2c(F)c(OC)cc(OC)c2F)Cc2cnc3[nH]c(CN4CCOCC4)cc3c21 [pemigatinib], the cell viability turned out to be 0.91.

In the case of `CN(C)S(=O)(=O)c1ccc2c(c1)/C(=C/c1cc3c([nH]1)CCCC3)C(=O)N2` + CCN1C(=O)N(c2c(F)c(OC)cc(OC)c2F)Cc2cnc3[nH]c(CN4CCOCC4)cc3c21 [pemigatinib], the cell viability turned out to be 0.917.

`C[C@]12C=CC(=O)N[C@@H]1CC[C@@H]1[C@@H]2CC[C@]2(C)[C@@H](C(=O)Nc3cc(C(F)(F)F)ccc3C(F)(F)F)CC[C@@H]12` [Dutasteride] + CCN1C(=O)N(c2c(F)c(OC)cc(OC)c2F)Cc2cnc3[nH]c(CN4CCOCC4)cc3c21 [pemigatinib]: the cell viability came out at 0.943.

As to `CO[C@H]1/C=C/O[C@@]2(C)Oc3c(C)c(O)c4c(O)c(c5c(nc6cc(C)ccn65)c4c3C2=O)NC(=O)/C(C)=C\C=C\[C@H](C)[C@H](O)[C@@H](C)[C@@H](O)[C@@H](C)[C@H](OC(C)=O)[C@@H]1C` [Rifaximin] + CCN1C(=O)N(c2c(F)c(OC)cc(OC)c2F)Cc2cnc3[nH]c(CN4CCOCC4)cc3c21 [pemigatinib], the cell viability turned out to be 0.914.

In the case of `O=C(Cc1ccccc1)Nc1nnc(CCSCCc2nnc(NC(=O)Cc3ccccc3)s2)s1` + CCN1C(=O)N(c2c(F)c(OC)cc(OC)c2F)Cc2cnc3[nH]c(CN4CCOCC4)cc3c21 [pemigatinib], the cell viability is 0.902.

In the case of `COc1cc(-c2ncn(/C=C\C(=O)OC(C)C)n2)cc(C(F)(F)F)c1` + CCN1C(=O)N(c2c(F)c(OC)cc(OC)c2F)Cc2cnc3[nH]c(CN4CCOCC4)cc3c21 [pemigatinib], the cell viability amounted to 0.417.

On to `COc1ccc(-c2nc(N3CCOCC3)c3sc(CN(C)c4ncc(C(=O)NO)cn4)cc3n2)cn1` + CCN1C(=O)N(c2c(F)c(OC)cc(OC)c2F)Cc2cnc3[nH]c(CN4CCOCC4)cc3c21 [pemigatinib], for which the cell viability was determined as 0.0302.

`COc1ccc(Cl)c(Nc2nc3ccccc3nc2NS(=O)(=O)c2cccc(NC(=O)C(C)(C)N)c2)c1` [Pilaralisib (XL147)] + CCN1C(=O)N(c2c(F)c(OC)cc(OC)c2F)Cc2cnc3[nH]c(CN4CCOCC4)cc3c21 [pemigatinib]: the cell viability is 0.851.

As for `CCCNC(=O)NS(=O)(=O)c1ccc(Cl)cc1` [Chlorpropamide] + CCN1C(=O)N(c2c(F)c(OC)cc(OC)c2F)Cc2cnc3[nH]c(CN4CCOCC4)cc3c21 [pemigatinib], the cell viability stood at 1.04.

Turning to `Cc1cnc(Nc2ccc(OCCN3CCCC3)cc2)nc1Nc1cccc(S(=O)(=O)NC(C)(C)C)c1` + CCN1C(=O)N(c2c(F)c(OC)cc(OC)c2F)Cc2cnc3[nH]c(CN4CCOCC4)cc3c21 [pemigatinib], the cell viability was 0.843.

As for `Cn1ncnc1[C@H]1c2n[nH]c(=O)c3cc(F)cc(c23)N[C@@H]1c1ccc(F)cc1` + CCN1C(=O)N(c2c(F)c(OC)cc(OC)c2F)Cc2cnc3[nH]c(CN4CCOCC4)cc3c21 [pemigatinib], the cell viability is 0.596.

Consider `O=C1NCC2(CCN(CCc3ccccc3)CC2)O1` [Fenspiride HCl] + CCN1C(=O)N(c2c(F)c(OC)cc(OC)c2F)Cc2cnc3[nH]c(CN4CCOCC4)cc3c21 [pemigatinib], for which the cell viability worked out at 0.992.

As for `Clc1ccc2c(c1)CCc1cccnc1C2=C1CCNCC1` [Desloratadine] + CCN1C(=O)N(c2c(F)c(OC)cc(OC)c2F)Cc2cnc3[nH]c(CN4CCOCC4)cc3c21 [pemigatinib], the cell viability worked out at 0.973.

Consider `CCS(=O)(=O)N1CC(CC#N)(n2cc(-c3ncnc4[nH]ccc34)cn2)C1` + CCN1C(=O)N(c2c(F)c(OC)cc(OC)c2F)Cc2cnc3[nH]c(CN4CCOCC4)cc3c21 [pemigatinib], for which the cell viability amounted to 0.912.

For `O=C(O)CCc1ccc(NCc2cccc(Oc3ccccc3)c2)cc1` + CCN1C(=O)N(c2c(F)c(OC)cc(OC)c2F)Cc2cnc3[nH]c(CN4CCOCC4)cc3c21 [pemigatinib], the cell viability was 1.03.

On to `O=C(c1ccc(F)cc1)C1CCN(CCn2c(=O)[nH]c3ccccc3c2=O)CC1` [Ketanserin] + CCN1C(=O)N(c2c(F)c(OC)cc(OC)c2F)Cc2cnc3[nH]c(CN4CCOCC4)cc3c21 [pemigatinib], for which the cell viability was found to be 0.969.

As for `NC(=O)Nc1cc(-c2cccc(F)c2)sc1C(=O)N[C@H]1CCCNC1` + CCN1C(=O)N(c2c(F)c(OC)cc(OC)c2F)Cc2cnc3[nH]c(CN4CCOCC4)cc3c21 [pemigatinib], the cell viability amounted to 0.51.

With `C[C@H]1[C@H](C)CC[C@]2(C(=O)O)CC[C@]3(C)C(=CC[C@@H]4[C@@]5(C)CC[C@H](O)C(C)(C)[C@@H]5CC[C@]43C)[C@H]12` [Ursolic Acid] + CCN1C(=O)N(c2c(F)c(OC)cc(OC)c2F)Cc2cnc3[nH]c(CN4CCOCC4)cc3c21 [pemigatinib], the cell viability was 0.964.

For `Nc1nccc(Oc2ccc(NC(=O)c3c[nH]cc(-c4ccc(F)cc4)c3=O)cc2F)c1Cl` + CCN1C(=O)N(c2c(F)c(OC)cc(OC)c2F)Cc2cnc3[nH]c(CN4CCOCC4)cc3c21 [pemigatinib], the cell viability was determined as 0.989.

For the compound `C[C@H]1CO[C@@H]2Cn3cc(C(=O)NCc4ccc(F)cc4F)c(=O)c(O)c3C(=O)N12` + CCN1C(=O)N(c2c(F)c(OC)cc(OC)c2F)Cc2cnc3[nH]c(CN4CCOCC4)cc3c21 [pemigatinib], the cell viability came out at 1.03.

In the case of `CC1(C)O[C@@H]2C[C@H]3[C@@H]4C[C@H](F)C5=CC(=O)C=C[C@]5(C)[C@@]4(F)[C@@H](O)C[C@]3(C)[C@]2(C(=O)CO)O1` [Fluocinolone Acetonide] + CCN1C(=O)N(c2c(F)c(OC)cc(OC)c2F)Cc2cnc3[nH]c(CN4CCOCC4)cc3c21 [pemigatinib], the cell viability is 0.867.

Take `Cc1cc(C)nc(NS(=O)(=O)c2ccc(N)cc2)n1` [Sulfamethazine] + CCN1C(=O)N(c2c(F)c(OC)cc(OC)c2F)Cc2cnc3[nH]c(CN4CCOCC4)cc3c21 [pemigatinib]: the cell viability amounted to 0.928.

Regarding `CC(C)(Oc1ccc(Cl)cc1)C(=O)OCCOC(=O)c1cccnc1` [Etofibrate] + CCN1C(=O)N(c2c(F)c(OC)cc(OC)c2F)Cc2cnc3[nH]c(CN4CCOCC4)cc3c21 [pemigatinib], the cell viability was 0.905.

On to `CC[C@H](NC(=O)[C@H](C)NC)C(=O)N1C[C@@H](O)C[C@H]1Cc1c(-c2[nH]c3cc(F)ccc3c2C[C@@H]2C[C@H](O)CN2C(=O)[C@H](CC)NC(=O)[C@H](C)NC)[nH]c2cc(F)ccc12` [Birinapant] + CCN1C(=O)N(c2c(F)c(OC)cc(OC)c2F)Cc2cnc3[nH]c(CN4CCOCC4)cc3c21 [pemigatinib], for which the cell viability was determined as 0.847.

With `CC(C)N(CC[C@H](c1ccccc1)c1cc(CO)ccc1O)C(C)C` + CCN1C(=O)N(c2c(F)c(OC)cc(OC)c2F)Cc2cnc3[nH]c(CN4CCOCC4)cc3c21 [pemigatinib], the cell viability turned out to be 1.

With `CN1CCN2c3ncccc3Cc3ccccc3C2C1` (stereo not given) [Mirtazapine] + CCN1C(=O)N(c2c(F)c(OC)cc(OC)c2F)Cc2cnc3[nH]c(CN4CCOCC4)cc3c21 [pemigatinib], the cell viability was determined as 1.04.

Turning to `CC(C)[C@H](N)C(=O)OCCOCn1cnc2c(=O)nc(N)[nH]c21` [Valaciclovir HCl] + CCN1C(=O)N(c2c(F)c(OC)cc(OC)c2F)Cc2cnc3[nH]c(CN4CCOCC4)cc3c21 [pemigatinib], the cell viability turned out to be 0.988.

On to `CC(C(O)c1ccc(O)cc1)N1CCC(Cc2ccccc2)CC1` (stereo not given) [Ifenprodil Tartrate] + CCN1C(=O)N(c2c(F)c(OC)cc(OC)c2F)Cc2cnc3[nH]c(CN4CCOCC4)cc3c21 [pemigatinib], for which the cell viability amounted to 1.

In the case of `C[C@@H]1C/C=C/C=C/C=C/C=C/[C@H](O[C@@H]2O[C@H](C)[C@@H](O)[C@H](N)[C@@H]2O)C[C@@H]2O[C@](O)(C[C@@H](O)C[C@H]3O[C@@H]3/C=C/C(=O)O1)C[C@H](O)[C@H]2C(=O)O` [Natamycin] + CCN1C(=O)N(c2c(F)c(OC)cc(OC)c2F)Cc2cnc3[nH]c(CN4CCOCC4)cc3c21 [pemigatinib], the cell viability was determined as 0.975.

`CC1=NN(c2ccc(C)c(C)c2)C(=O)/C1=N\Nc1cccc(-c2cccc(C(=O)O)c2)c1O` [Eltrombopag] + CCN1C(=O)N(c2c(F)c(OC)cc(OC)c2F)Cc2cnc3[nH]c(CN4CCOCC4)cc3c21 [pemigatinib]: the cell viability worked out at 0.921.

As to `CC1=NN(c2ccc(C)c(C)c2)C(=O)/C1=N\Nc1cccc(-c2cccc(C(=O)O)c2)c1O` [Eltrombopag Olamine] + CCN1C(=O)N(c2c(F)c(OC)cc(OC)c2F)Cc2cnc3[nH]c(CN4CCOCC4)cc3c21 [pemigatinib], the cell viability stood at 0.951.

Consider `CCn1c(=O)c2c(nc(/C=C/c3ccc(OC)c(OC)c3)n2C)n(CC)c1=O` [Istradefylline] + CCN1C(=O)N(c2c(F)c(OC)cc(OC)c2F)Cc2cnc3[nH]c(CN4CCOCC4)cc3c21 [pemigatinib], for which the cell viability was 0.909.

`COC(=O)N[C@@H](C)CNc1nccc(-c2cn(C(C)C)nc2-c2cc(Cl)cc(NS(C)(=O)=O)c2F)n1` + CCN1C(=O)N(c2c(F)c(OC)cc(OC)c2F)Cc2cnc3[nH]c(CN4CCOCC4)cc3c21 [pemigatinib]: the cell viability came out at 0.896.

For `CC#C[C@]1(O)CC[C@H]2[C@@H]3CCC4=CC(=O)CCC4=C3[C@@H](c3ccc(N(C)C)cc3)C[C@@]21C` [Mifepristone] + CCN1C(=O)N(c2c(F)c(OC)cc(OC)c2F)Cc2cnc3[nH]c(CN4CCOCC4)cc3c21 [pemigatinib], the cell viability turned out to be 0.951.

For the origin of these results see the supplement of paper PMC9588766.
